# The other results are listed elsewhere or left out.
# B1: ENSG00000096717:stop:overlap|stop_codon|ENSG00000096717|stop_codon|NA|stop_codon (ssRNA)
# RNA: GGGAGUUCUACAGUCCGACGAUCAUGAAGCUAUAUCUGUGAAACAGGAAGUAACAGACAUGAACUAUCCAUCAAACAAAUCAUAGUGUAAUAAUUGUGCAGGUACAGGAAUUGUUCCACCAGCAUUAGGAACUUUAGCAUGUCCAACAGAGGAUUGAGCAUCA
# B2: chr3:149172415:149172516:+|3pUTR|ENSG00000163755|unk|FALSE|unique (ssRNA)
# RNA: GGGAGUUCUACAGUCCGACGAUCUUACCGUGUAGUGGUAACUAUUCACUUCUUAAUUUAUGACCUCAAUCAAUUUAAUUGUCUAGAAUGUAAAAAGUCUUUAAGACAUAAGAAUUCCUCAAAGAAGCCAUACAUUUUUUAAGGCAACAGAGGAUUGAGCAUCA
# B3: chr1:213005240:213005351:-|CDS|ENSG00000174606|unk|FALSE|unique (ssRNA)
# RNA: GGGAGUUCUACAGUCCGACGAUCGAACCCAGUGGAAUUCUUCCGCCCUGAUAUUUCUCUGUUGGACAGAGACAAUGUUGGAUUAGUUUUACUCUUACAGCCCAAAAUUCCAUAUGCUGCCUGCCCUGCAAUCUGCGUAGCAAACAACAGAGGAUUGAGCAUCA
# B4: chr8:12150890:12151093:-|CDS|ENSG00000254866|control|control|control (ssRNA)
# RNA: GGGAGUUCUACAGUCCGACGAUCGAUGUCUGCAAAGUAGUAGAAGAUCAAAUUGGUGCCUGCCGAAGAAGGAUGAAGUGUUGUAGAGCAUGGUGGAUUUUAAUGCCAAUUCCAACACCACUUAUCAUGUCAGAUUAUCAAGAACAACAGAGGAUUGAGCAUCA
# B5: chr6:109001311:109001429:-|CDS|ENSG00000080546|unk|FALSE|unique (ssRNA)
# RNA: GGGAGUUCUACAGUCCGACGAUCUGCUGCUUUGGGCCGUUUGGAUAACAUUACGUUAGUGAUGGUUUUCCACCCACAAUAUUUAGAAAGUUUCUUAAAAACUCAGCACUAUCUACUGCAAAUGGAUGGGCCGUUACCCCUACACAACAGAGGAUUGAGCAUCA
# B6: ENSG00000124766:be:win_1101|CDS|ENSG00000124766|bound_else_gene|NA|bound_elsewhere_windowed (ssRNA)
# RNA: GGGAGUUCUACAGUCCGACGAUCCUCGCCCGCCCCGUCCAGCGCGCCCUCGCACGCGUCCUCCUCGGCCUCGUCCCACUCCUCCUCUUCCUCCUCCUCGGGCUCCUCGUCCUCCGACGACGAGUUCGAAGACGACCUGCUCGACAACAGAGGAUUGAGCAUCA
# B7: ENSG00000148396:stop:overlap|stop_codon|ENSG00000148396|stop_codon|NA|stop_codon (ssRNA)
# RNA: GGGAGUUCUACAGUCCGACGAUCCCACCUCCGGGAGCUCAAGGCUAGGGAGGAUUGGCCAGAGGAAGCACCUGGUGCUGAACUAGGCUUGCCCUGCUGUGAACUUGCACUUGGAGCCCUGACGCUGCUGUUCUCCCCGAAGAACAACAGAGGAUUGAGCAUCA
# B8: ENSG00000198589:be:win_4101|CDS|ENSG00000198589|bound_else_gene|NA|bound_elsewhere_windowed (ssRNA)
# RNA: GGGAGUUCUACAGUCCGACGAUCUAUGGUCAUGGCUUGUGGGGGUAUACUGCCAUUGCUUUCAGCUGCUACAUCGGCUACACAUGAACUGGAAAAUAUUGAACCUACUCAAGGCCUUUCAAUAGAAGCCUCUGUGACAUUUUUCAACAGAGGAUUGAGCAUCA
# B9: ENSG00000100439:stop:overlap|stop_codon|ENSG00000100439|stop_codon|NA|stop_codon (ssRNA)
# RNA: GGGAGUUCUACAGUCCGACGAUCCUGUCCUAGGACGUUCCAAUCCAUUGGCUGUUCUUCGAGUAGCUGGGCCCUGGGGUGAGUAGCCUGAAUACAAAGGUGACUAAGAUUCUGCCUCAGUCUCUGAAGAGACCAACAAGUUGACAACAGAGGAUUGAGCAUCA
# B10: chr1:205084032:205084133:-|CDS|ENSG00000174529|msi1|total|mutant (ssRNA)
# RNA: GGGAGUUCUACAGUCCGACGAUCGGAGACCGUCUGUGAGGUGGGCCCUGAUGGAGUGAGAAGGAAAUGUCAGACUCGGCGCUCCGAAUGUCUGACCAACUGGAUCUGUGGGAUGCUCCAUUUCACCAUUCUCAUUGGCAAGGACAACAGAGGAUUGAGCAUCA
# B11: chr11:108173179:108173289:-|CDS|ENSG00000149308|unk|FALSE|unique (ssRNA)
# RNA: GGGAGUUCUACAGUCCGACGAUCUGGUUCCAAGUCAUCAGAUUCUAGUGAAGUUCACAAGAGUAAAAUAGAAAUUAAUGUGUUAGAACCAGUUAUGUCACAGCUAUCAAAUUGCCAAGAUAAUUCUUGUCUUCAAAGUGAAAUCAACAGAGGAUUGAGCAUCA
# B12: chr8:58582127:58582250:+|3pUTR|ENSG00000137575|unk|FALSE|bound_elsewhere (ssRNA)
# RNA: GGGAGUUCUACAGUCCGACGAUCUUCAUAUUACUUUAGUUCUAUAGCAUACUUGCAUCUUUAACAUGCUAUCAUAGUACAUUUAGAAUGAUUGCCUUUGAUUUUUUUUUUAAAUUCUGUGUGUGUGUGUGUAAAAUGCCAAUUCAACAGAGGAUUGAGCAUCA
# B13: chr17:35009752:35009853:-|3pUTR|ENSG00000092871|msi1|total|mutant (ssRNA)
# RNA: GGGAGUUCUACAGUCCGACGAUCAUUCAGCUACUCAGUUCCUCUGUAAAACAGGUCUAUGUAUGUGCAAUUCAGCUAAGAUCCCGCAGUAACUUAAGGGCAGAAGCUGGCUCUCUACUUACAACCUGCUUUCUCUGCUGAAGCCAACAGAGGAUUGAGCAUCA
# B14: ENSG00000107863:be:win_3951|CDS|ENSG00000107863|bound_else_gene|NA|bound_elsewhere_windowed (ssRNA)
# RNA: GGGAGUUCUACAGUCCGACGAUCGGUCACCCACAUGCCUGACCAGUACAAGAUUGUAGAAACGCUCAUCCAGCACCAUGACUGGUUUUUCACAGAAGAAGGUGCUGAAGAGCCUCUUACAACAGUGCAGGAGGAAAGCACAGUCAACAGAGGAUUGAGCAUCA
# B15: chr20:38493008:38493109:+|CDS|ENSG00000170471|unk|total|mutant (ssRNA)
# RNA: GGGAGUUCUACAGUCCGACGAUCAUUGGAUGGAGAGACUGUAAAAUAUUGCGUUGAUGUAUAUACAGACUGGAUUAUGGCUUCCGUGUUGCCAAAAGAUUCUAUUCCAUUGCCAGUUAUUAAAGAGCCUAAUCAAUAUGUUCACAACAGAGGAUUGAGCAUCA
# B16: ENSG00000070961:be:win_4901|3pUTR|ENSG00000070961|bound_else_gene|NA|bound_elsewhere_windowed (ssRNA)
# RNA: GGGAGUUCUACAGUCCGACGAUCCAGUGCAUCAGUCUGUUCUCUUUGACCACAAUUGGAAUACAUUUCAAGAUGGUAACAGCCCCAUGAAGUACCGCUUUAAUUCCUUGCUGGUAAUCUAAUAGAAUCAGAUUAAGAAAAUUACAACAGAGGAUUGAGCAUCA
# B17: chr2:160273923:160274028:-|3pUTR|ENSG00000153250|unk|FALSE|unique (ssRNA)
# RNA: GGGAGUUCUACAGUCCGACGAUCGGGCUUUUAAAAGGUAGUCAAUAAAAGUUGCUGAAAUUUUGGCUUUUUUAAAUAUGUAGUAGGUGUUUUUAAUGAUUUUUCACAUAAUGUGUAAGGUAGUGAAAUGCAAGAAGGGAAAAACAACAGAGGAUUGAGCAUCA
# B18: chrX:100674576:100674677:+|3pUTR|ENSG00000102359|msi1|total|mutant (ssRNA)
# RNA: GGGAGUUCUACAGUCCGACGAUCUUGCAAUCCACACCAAAUCAAUCUUUGAAAACAUUCCUCCAUUCGGUUCAUACAUACAGCCGAAACCACUGUGGCUGCCCUUAAUCCAGUGUGCUUACCGGAAAUCAGUCCGCAGCUGACCAACAGAGGAUUGAGCAUCA
# B19: chr1:23091194:23091296:-|CDS|ENSG00000169641|unk|total|mutant (ssRNA)
# RNA: GGGAGUUCUACAGUCCGACGAUCCUCCAGAAGGACCCAAAGCCGCCUCACUGUGUCAGAGGUGCUUACCCGUCGGAAUCGGGCCGGAGACACCAUCACUGUCGCAGCCUGGAACCACUCAGCAAGCAUGGUGAGUUCCAGCCUCAACAGAGGAUUGAGCAUCA
# B20: chr12:122271799:122271900:-|3pUTR|ENSG00000130779|msi1|FALSE|bound_elsewhere (ssRNA)
# RNA: GGGAGUUCUACAGUCCGACGAUCGUAUAAAACACCUAAAUAACCAAUCUACAAUCUCCCUUCACAAGUUUUUUUACUGUUUUUAGAUGAAUGUACGAUGAGAAAUUCAACGUUAAUAAUUCUGGAUUUUCUUAUCACAAAAAACAACAGAGGAUUGAGCAUCA
# B21: chrX:120258281:120258382:+|3pUTR|ENSG00000177485|msi1|total|mutant (ssRNA)
# RNA: GGGAGUUCUACAGUCCGACGAUCUGUACAAUCUUCCCUGUCAUGACUUUAAGUUCUACUUUUCAUUAACCAUGGCCUGAUAUCCGUUCUCCGAGCUUCUUGUGGCAAAAAUAAAAUGAUUUAAUUCUGAUGUUUGAGUGCGUGCAACAGAGGAUUGAGCAUCA
# B22: chr7:44210018:44212343:-|three_prime_utr|ENSG00000058404|control|control|control (ssRNA)
# RNA: GGGAGUUCUACAGUCCGACGAUCCCCCAAUCCUGGCAGGCGUGGCAGAGGGAGCUCCACAGGACACAGCCAGGCAGAGAAACUAGCACUAGAACAGGGUGGGGGUGGAGGCCUUGAGGGAAGCUGUCCACAAGCAAUUCCCAUCAACAGAGGAUUGAGCAUCA
# Molecular target: MSI1 full-length (mouse, UniProt Q61474 1-362)
# Chain of UniProt Q61474 (Q61474 whole entry): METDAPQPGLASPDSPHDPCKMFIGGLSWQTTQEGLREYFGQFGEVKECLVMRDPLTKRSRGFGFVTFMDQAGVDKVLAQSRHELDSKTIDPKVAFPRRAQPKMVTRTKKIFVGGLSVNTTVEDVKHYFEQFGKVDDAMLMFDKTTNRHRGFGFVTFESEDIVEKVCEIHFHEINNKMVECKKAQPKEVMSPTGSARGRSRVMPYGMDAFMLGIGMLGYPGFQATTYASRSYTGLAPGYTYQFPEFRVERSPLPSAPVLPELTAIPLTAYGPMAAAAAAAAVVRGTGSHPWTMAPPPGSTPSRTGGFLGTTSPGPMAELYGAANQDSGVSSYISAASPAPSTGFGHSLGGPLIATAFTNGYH
# Test: nsRBNS (natural sequence RNA bind-n-seq); RBNS binding buffer (assumed for nsRBNS): 25 mM Tris pH 7.5, 150 mM KCl, 3 mM MgCl2, 0.01% Triton X-100, 500 ug/ml BSA, 20 U/ml SUPERase-In, 4 C; UNK is unkempt and MSI1 is Musashi-1; names of the RNAs are library labels; protein concentration not given here; high values mean tight binding
row,Binder,binding signal
1,B1,0.449 enrichment R
2,B2,5.75 enrichment R
3,B3,0.68 enrichment R
4,B4,0.515 enrichment R
5,B5,2.55 enrichment R
6,B6,0.794 enrichment R
7,B7,0.737 enrichment R
8,B8,0.328 enrichment R
9,B9,0.636 enrichment R
10,B10,0.456 enrichment R
11,B11,1.48 enrichment R
12,B12,10.5 enrichment R
13,B13,0.371 enrichment R
14,B14,0.341 enrichment R
15,B15,0.506 enrichment R
16,B16,0.372 enrichment R
17,B17,5.91 enrichment R
18,B18,0.411 enrichment R
19,B19,0.386 enrichment R
20,B20,1.89 enrichment R
21,B21,0.315 enrichment R
22,B22,1.05 enrichment R

# From publication PMC12136788
